The whole screen tested about 150,000 compounds, of which about 6,500 (4.3%) were called active. The shares of active, inactive and inconclusive entries below differ from those in the screen. The call rests on the fitted dose curve; in most records, active means well fitted inhibition curve with a large enough effect (not every such curve was filed as active); inconclusive means small, poorly fitted or top-dose-only effect, or another doubt; inactive means no such curve, though single readings can be large or run the other way. No potency is given beside an inconclusive call; the fits are too rough.
These compounds were tested against 15-hydroxyprostaglandin dehydrogenase [NAD(+)] (Homo sapiens) (UniProt P15428) (assay: qHTS Assay for Inhibitors of HPGD (15-Hydroxyprostaglandin Dehydrogenase)). Conditions: purified HPGD, NADH fluorescence kinetic, PGE2 substrate; activity change, negative = inhibition: active compounds read low.
UniProt P15428, sequence (P15428 whole entry, looked up): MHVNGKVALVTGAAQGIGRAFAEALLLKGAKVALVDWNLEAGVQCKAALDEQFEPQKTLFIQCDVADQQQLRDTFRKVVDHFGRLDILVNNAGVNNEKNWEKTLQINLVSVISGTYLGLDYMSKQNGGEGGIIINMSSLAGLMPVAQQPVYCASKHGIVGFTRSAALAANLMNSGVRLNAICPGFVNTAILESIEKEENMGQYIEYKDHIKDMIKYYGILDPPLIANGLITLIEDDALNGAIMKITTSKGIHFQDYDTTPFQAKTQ
How it was run: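 NADH formation kinetics: reaction with 30 uM PGE2 and 1 mM NAD+ (final), 20 nM enzyme, Tris-HCl pH 8 with Tween 20, after 15 min compound preincubation at room temperature. Fluorescence change, last versus first of five reads.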
On the % scale 0 is the no-effect control and ±100 the full control effect; potency means the concentration at half of the fitted maximal effect; tags describe the fitted curve by direction and shape.

Structure (SMILES)	activity change, negative = inhibition	Potency
O=C(CN(C1CC1)S(=O)(=O)c1ccc(S(=O)(=O)N2CCCCCC2)cc1)Nc1ccccc1	inactive: -0.0964%	
Cc1ccc(NC(=S)N/N=C/c2ccc([N+](=O)[O-])s2)cc1		inconclusive [inhibitor, single point]
Cn1c(C(=O)N2CCc3ccccc3C2)cc2oc3ccccc3c21		active: 0.708 µM
COc1cccc2c1C(=O)O/C2=C/c1ccc2c(c1)OCO2		inconclusive [inhibitor, partial curve]
Cc1ccccc1CNC(=O)c1ccccc1N		inconclusive [inhibitor, partial curve]
CCn1c(SCC(=O)N2CCN(c3cccc(Cl)c3)CC2)nc2ccccc2c1=O	inactive: -18.3%	
O=C(C1CC(c2ccc(F)cc2)=NO1)N1CCN(c2ccccc2)CC1 (configuration not stated)	inactive: -6.07%	
CCOC(=O)c1c(NC(=O)c2ccccc2)sc2c1CCc1ccccc1-2		inconclusive [inhibitor, partial curve]
CN1c2ccccc2N(C)C1(C)c1ccccc1	inactive: -10.9%	
COC(=O)c1c(NC(=O)c2ccc(N(C)S(=O)(=O)c3ccc(C)cc3)cc2)sc2c1CCCC2		inconclusive [inhibitor, partial curve]
CCSCCOC(=O)C1=C(C)NC(=O)NC1c1ccc2c(c1)OCO2 (configuration not stated)	inactive: -14.3%	
Cc1ccc(CNC(=O)c2ccc(N3CCCC3=O)cc2)cc1	inactive: -7.21%	
Cc1cc(C)n(-c2ccc(C(=O)Nc3sccc3C(N)=O)cc2)n1		inconclusive [inhibitor, partial curve]
Cc1ccc(C2=Nc3ccccc3NC(C)(c3ccc(C)o3)C2)o1 (configuration not stated)	inactive: -15.8%	
O=C1C2C3C=CC(CNS(=O)(=O)c4ccccc4)(O3)C2C(=O)N1c1ccc(Cl)cc1 (configuration not stated)		active: 22.4 µM
Cn1c(=O)c2c(nc(SCC(=O)O)n2Cc2cc3c(cc2Cl)OCO3)n(C)c1=O		active: 25.1 µM
CCOc1ccccc1N=c1oc2cc(O)ccc2cc1C(=O)NCC1CCCO1 (configuration not stated)		inconclusive [inhibitor, partial curve]
COc1cc(/C=C/C(=O)c2ccc(O)cc2)ccc1OCC#N	inactive: -19.8%	
CC(C)CC(=O)Nc1ccc2oc(-c3ccncc3)nc2c1		inconclusive [inhibitor, partial curve]
CC1=NN(c2ccc(Cl)cc2)C(=O)C1C(c1ccccc1O)c1c(C)[nH]n(-c2ccc(Cl)cc2)c1=O (configuration not stated)		active: 7.94 µM
O=C(CSCc1ccccc1)N=Nc1c(O)[nH]c2ccccc12	inactive: -8.47%	
COc1ccccc1NS(=O)(=O)c1cc(NC(=O)Nc2cccc(C)c2)ccc1N1CCCCC1		inconclusive [inhibitor, single point]
Cc1ccsc1-c1nc(CSCC(=O)N2CCN(c3ccccc3)CC2)c(C)o1		inconclusive [inhibitor, partial curve]
CCC(=O)Nc1cccc(-c2cn3ccccc3n2)c1		inconclusive [inhibitor, partial curve]

Structure (SMILES)	activity change, negative = inhibition	Potency
Cc1ccsc1/C=C1/SC(N2CC(C)OC(C)C2)=NC1=O (configuration not stated)		active: 31.6 µM
O=C(NCC1CCCO1)c1ccc(/C=N/O)nc1 (configuration not stated)	inactive: -8.93%	
Oc1ccc(Cl)cc1-c1cc(-c2ccccc2Cl)[nH]n1		active: 7.94 µM
S=c1[nH]nc(C2CC2c2ccc(Cl)cc2)n1-c1ccc(Cl)cc1 (configuration not stated)		active: 5.01 µM
O=C(O)c1ccccc1C(=O)Nc1ccccc1	inactive: -16.4%	
CCCC(C)C(=O)Nc1nc(C)c(-c2csc(Nc3ccc(Cl)cc3)n2)s1 (configuration not stated)		inconclusive [inhibitor, single point]
COC(=O)c1ccc(C(NC(=O)OCc2ccccc2)/C(C)=C/[C@@H](C)C(=O)NC2CCCCC2)cc1 (some centres not stated)	inactive: -18.6%	
c1ccc(-n2c(SCc3nc(-c4cccs4)no3)nnc2-c2ccco2)cc1		active: 31.6 µM
Cn1ncc2c(Nc3cccc(Cl)c3)nc(Nc3cccc(Cl)c3)nc21		inconclusive [inhibitor, partial curve]
CCN1C(c2ccc(F)cc2)=CS/C1=C(\C#N)c1nnc2n1-c1ccccc1SC2		inconclusive [inhibitor, partial curve]
COc1cc(NC(=O)Cc2ccc(Cl)cc2)ccc1NC(=O)c1ccco1		inconclusive [inhibitor, partial curve]
COC(=O)c1ccc(-n2c(C)ccc2-c2ccccc2)cc1		inconclusive [inhibitor, single point]
O=C(NCc1ccco1)c1ccc(COc2ccc(Cl)cc2)cc1	inactive: -23.6%	
CCN(CC)C(=O)c1cc2c(=O)n3ccccc3nc2s1		inconclusive [inhibitor, partial curve]
CCOc1ccc2[nH]c3c(N4CCN(c5ccccn5)CC4)ncnc3c2c1		inconclusive [inhibitor, partial curve]
O=C(CSc1n[nH]c(-c2cccs2)n1)N1CCN(S(=O)(=O)c2ccc3ccccc3c2)CC1		inconclusive [inhibitor, single point]
CCOCCn1c(SC)nc2c1c(=O)[nH]c(=O)n2C		active: 20 µM
CC(C(=O)NC1CCCC1)N(C(=O)c1ccc(-c2ccccc2)[nH]1)c1ccccc1F (configuration not stated)		inconclusive [inhibitor, partial curve]
CCCCn1nc2cc(C(=O)N(CC)c3ccc(OC)cc3)ccc2c1OCC		inconclusive [inhibitor, partial curve]
O=C(N[C@@H](Cc1ccccc1)C(=O)NC1CCCCC1)c1ccco1	inactive: -11.2%	
CC1(C)Cn2c(nnc2-c2cccc(O)c2)S1		active: 15.8 µM
COc1ccc2nc3oc(C(=O)N4CCN(c5ccccc5F)CC4)cc3cc2c1		inconclusive [inhibitor, single point]
COCCNc1cc(-c2ccccc2CN(C)C)ncn1	inactive: -27.4%	
